“And” between values parts separate entries of the source, which are not always exact repeats. Identical values can stand only once.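 Tested at 5 concentrations; 48 h exposure; 96-well plates; endpoints linearly interpolated, else capped at highest concentration. GI50: concentration for 50% inhibition of growth. TGI: total growth inhibition.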
Tested on: NCI-H322M lung
Test: inhibition of tumour cell growth, NCI panel, 48 h

| Structure (SMILES) | TGI | GI50 [µM] |
| --- | --- | --- |
| O=C1/C(=C/c2ccc(Br)cc2)CCC/C1=C\c1ccc(Br)cc1 | 79.8 µM |  |
| COc1ccc(Sc2ccccc2N)cc1 | > 100 µM |  |
| C[C@H]1COC2=C1C(=O)C(=O)c1c2ccc2c1CCCC2(C)C | 4.13 µM |  |
| N=C(N)c1ccc(-c2ccc(-c3ccc(Cl)cc3Cl)s2)cc1 | 3.1 µM | 1.7 |
| CC(C)(C)c1ccc(NS(=O)(=O)c2ccc3nc(NC(=O)c4cnccn4)[nH]c3c2)cc1 | 15.7 µM | 3.82 |
| COc1cccc2c1n([O-])c1cccc(OC)c1[n+]2=O | > 100 µM | 31.6 |
| N#CC1C=Cc2c(ccc3ccccc23)N1C(=O)c1ccccc1 (configuration not stated) | 71.3 µM | 0.474 |
| CC(C)=CC(=O)Cc1nc2ccc([N+](=O)[O-])cc2[nH]c1=O | > 100 µM |  |
| Cc1coc2c1C(OC(=O)C(C)C)C1(C)C(C)CCC(O)C1C2=O (configuration not stated) | > 100 µM |  |
| CCCC(=O)[O-].N.N.N.N.N.[Co+3].[O-][Cl+3]([O-])([O-])[O-] | > 100 µM |  |
| CCC[CH2][Sn]1([CH2]CCC)[O]CC(C)[O]1 (configuration not stated) | 12.5 µM | 3.37 |
| CCN1CCC(O)(/C=C/c2ccc(OC)cc2)C(C(=O)/C=C/c2ccc(OC)cc2)C1 (configuration not stated) | 27.3 µM |  |
| CC1(C)C(=O)/C(=C\c2cccnc2)C[C@]2(C)[C@H]3CC[C@@H]4[C@@H](C(=O)/C=C/c5ccncc5)CC[C@@]4(C)[C@]3(C)CC[C@@H]12 | 7.42 µM | 2.58 |
| CC(=O)c1nc2ccccc2n1CC(=O)c1cccc(Cl)c1 | > 100 µM | 3.32 |
| O=c1oc2ccccc2c(O)c1C(C/C(CCN1CCCC1)=N\Nc1ccccc1)c1ccccc1 (configuration not stated) | > 100 µM |  |
| NC(CSSCC(N)Cc1ccccc1)Cc1ccccc1 (configuration not stated) | > 100 µM |  |
| COc1ccc(N2NC(c3ccccc3)(c3ccccc3)C(C)C2=O)cc1 (configuration not stated) | > 100 µM |  |
| NC(N)=NCCCC(NC(=O)OCCCCn1ccc(N)nc1=O)C(=O)O (configuration not stated) | > 100 µM |  |
| Cc1ccc(NC(=O)CSC(N)=O)cc1C | > 100 µM |  |
| O=c1ccc2ccc(O)cc2o1 | > 100 µM |  |
| Oc1c(CN2CCN(c3ccccc3)CC2)cc(Br)c2cccnc12 | 36.3 µM |  |
| CCN(CC)CC(=N)N(CC)c1ccccc1 | > 100 µM |  |
| CCCCCCCCCCCCCC(=O)N(CCCCCCCCC)CC(O)C(O)C(OC1OC(CO)C(O)C(O)C1O)C(O)CO (configuration not stated) | 32.3 µM |  |
| C=C(c1ccccc1)c1ccccc1-c1cc(-c2ccccc2)cc(-c2ccccc2)n1 | > 100 µM |  |
| CCN(CC)c1ccc(/C=C/C=C2\NC(=O)NC2=O)cc1 | > 100 µM | 26.1 |

| Structure (SMILES) | TGI | GI50 [µM] |
| --- | --- | --- |
| COc1c(B(O)O)cc(F)cc1-c1nc2ccc3[nH]ncc3c2c2c1CCCC2 | 8.96 µM | 2.15 |
| CC(=O)[CH-]C(C)=O.CC(=O)[CH-]C(C)=O.CC[O-].CC[O-].[Ti+4] | > 100 µM | > 100 |
| CN(C)CCCNCc1cccc2ccccc12 | > 100 µM |  |
| COc1ccc2c(c1)OC[C@@H]1c3cc(O)c(OCc4ccccc4)cc3O[C@H]21 | > 100 µM |  |
| O=C(O)CCC(NC(=O)c1ccc(Nc2nc3cc(C(F)(F)F)ccc3nc2C(=O)O)cc1)C(=O)O (configuration not stated) | > 100 µM |  |
| Nc1c(C(=O)Nc2cccc(Cl)c2Cl)sc2nc3c(cc12)C(=O)CCC3 | > 100 µM | 60.6 |
| NNC(=O)C(=O)N/N=C(\CCC(=O)Nc1ccc(Cl)cc1)Cc1nc2ccccc2s1 | > 100 µM |  |
| COC1OC2=CCC3C(=O)NC(=O)C3C2[C@H](OCc2ccccc2)C1OCc1ccccc1 (some centres not stated) | 30.4 µM |  |
| C/C=C(/C)C(=O)O[C@H]1[C@H](O)CC(c2ccc3c(c2O)C(O)=C2C(=O)C4(OC)C(O)=C(C(N)=O)C(=O)[C@H](CC(=O)c5ccccc5O)C4CC2[C@@]3(C)OC)O[C@@H]1C (some centres not stated) | 5.51 µM and 3.17 µM |  |
| COC(=O)c1nn(C(=N)c2ccc(Cl)cc2)c2c1CCC2 | > 100 µM |  |
| Fc1cc(-c2cc(-c3ccc4c(c3)OCO4)n[nH]2)c(Cl)cc1Cl | 5.01 µM |  |
| CN(C)/N=N/c1nc[nH]c1C(N)=O | > 1000 µM | 115 |
| CCOC(=O)c1c(-c2cccc3ccccc23)c(C#N)c(=S)n(C2OC(COC(C)=O)C(OC(C)=O)C(OC(C)=O)C2OC(C)=O)c1C (configuration not stated) | > 100 µM |  |
| CC1=NN(c2nc(N)nc(CF)n2)C(C)(C)C1 | > 100 µM |  |
| COc1cc2c3c(n(C)c(=O)c2cc1OC)-c1cc2c(cc1/C3=C\CCNCCCN)OCO2 | 12 µM | 2.2 |
| C=C1CN(C2=NCCO2)C1 | > 100 µM |  |
| C=C1C(=O)O[C@H]2[C@H]1CC/C(COC(=O)NCc1ccc(Cn3c(=O)sn(-c4ccccc4)c3=O)cc1)=C\CC[C@@]1(C)O[C@@H]21 | 24.7 µM | 12.3 |
| COC(=O)c1c(O)ccc2c1c1c(n2Cc2ccccc2)C(=O)c2ccccc2C1 | > 100 µM |  |
| Cn1c(O)c(C=Nc2ccccc2Cl)c(=O)n(C)c1=O | > 100 µM |  |
| CC1(C)N=C(c2ccccn2)C(c2ccccn2)=NC1(C)C | > 100 µM |  |
| CCOC(=O)C(NC(=O)OC(C)(C)C)C(=O)OCC | > 100 µM |  |
| Cc1ccc(C(=O)CC2=Nc3nnc(CCCCCCCc4nnc5n4C(=O)C(CC(=O)c4ccc(C)cc4)=N5)n3C2=O)cc1 | > 100 µM |  |
| O=S1Nc2c(Cl)cc(Cl)c(Cl)c2S1 (configuration not stated) | > 100 µM |  |
| Cc1ccc(Sc2cc3c(oc2=O)-c2ccccc2OC3O)cc1 (configuration not stated) | 53.3 µM | 25.1 |
| C=CC1=C(C)C2=NC1=CC1=NC(=C(CC)/C1=C\O)C=C1N=C3C(=C1C)C(=O)[C@H](C(=O)OC)C3=C1NC(=C2)[C@@H](C)[C@@H]1CCC(=O)O | > 100 µM |  |

| Structure (SMILES) | TGI | GI50 [µM] |
| --- | --- | --- |
| O=c1oc2c(C(F)(F)F)cccc2cc1-c1csc(Nc2ccc(OCCF)cc2)n1 | > 100 µM | 0.172 |
| CCCCNC(=O)/N=C/c1c(O)c2ccccc2oc1=O | > 100 µM |  |
| CC(=O)OC1COC(Nc2nc(N)n(C)c(=O)c2N=O)C(OC(C)=O)C1OC(C)=O (configuration not stated) | > 10 µM |  |
| CC(=O)/C(=C/N1CCNC1=S)C(=O)Nc1ccccc1C | > 100 µM |  |
| CCN(Cc1c(Cl)cccc1Cl)c1ccc(CO)c(Cl)c1 | 26.2 µM | 12.9 |
| N#CC(C#N)=C1C(=O)NC(N)=C1C#N | > 100 µM |  |
| O=C(CC/C(CC(=O)c1ccc(Br)cc1)=N\O)Nc1ccc(Cl)c(Cl)c1 | > 100 µM |  |
| CCc1cccc(C)c1NC(=O)CC1C(=O)Nc2ccccc2S1(=O)=O (configuration not stated) | 50.5 µM |  |
| COC(=O)C(NC(=O)c1ccccc1)C(c1ccc(Cl)cc1)P(=O)(OC)OC (configuration not stated) | > 100 µM |  |
| CCSc1ccc(C2C(Br)C(=O)N2c2cc(OC)c(OC)c(OC)c2)cc1 (configuration not stated) | > 100 µM | 7.38 |
| O=NN(CCCl)C(=O)NC1CCC(CC2CCC(NC(=O)N(CCCl)N=O)CC2)CC1 (configuration not stated) | > 31.6 µM |  |
| O=[N+]([O-])c1ccc(C=NC23CC4CC(CC(C4)C2)C3)cc1 | > 100 µM |  |
| CC(C)=CCCC(C)C1=C(O)C(=O)C(C)=CC1=O (configuration not stated) | > 65.7 µM |  |
| COc1ccc(Nc2nc(N)c(C(=O)c3cccs3)s2)cc1 | > 68.7 µM |  |
| COc1ccc(-c2nn(-c3ccc(NC(=O)Nc4ccc(Cl)c(C(F)(F)F)c4)cc3)cc2-c2ccncc2)cc1Cl | 63.7 µM | 3.05 |
| COc1cc(Br)c(CC2C3=C(CCN2C(=O)C2CCC2)CC(=O)CC3)cc1O (configuration not stated) | > 100 µM |  |
| O=C1NCCS(=O)(=O)N2CCC[C@@H]12 | > 100 µM |  |
| OCCN1CCN(CC/C=C2/c3ccccc3Sc3ccc(Cl)cc32)CC1 | 30.2 µM |  |
| NCCCNCCCCN1CC1 | 9.41 µM |  |
| O=C(CCc1ccc(O)cc1)N/N=C/c1cc(Br)ccc1O | 58.5 µM | 2.91 |
| Cc1c(Cl)cccc1NC(=O)c1sc2nc3c(cc2c1N)CCCCC3 | > 50 µM | 2.4 |
| Cn1cc(C2=C(N3CCOCC3)C(=O)NC2=O)c2ccccc21 | > 25 µM | > 25 |
| CC(=O)c1cc(O)c2ccccc2c1O | > 100 µM | 42.5 |
| O=c1[nH]c(=S)c2cc3c(=S)[nH]c(=O)n(CCO)c3nc2n1CCO | > 100 µM |  |
| C[C@@H]1COCCN1c1cc(C2(O)C[C@H]3CC[C@@H](C2)O3)c2cnn(-c3ccn[nH]3)c2n1 (some centres not stated) | 0.678 µM | 0.0315 |

| Structure (SMILES) | TGI | GI50 [µM] |
| --- | --- | --- |
| Cc1ccc(N=C2C(=Nc3ccc(C)cc3)N(c3ccc(C)cc3)C(=S)N2C(=O)c2ccccc2)cc1 | > 100 µM |  |
| CCCCCCCCCCCCCCCC1=NC(C)(C)CN1C(C)C | 2.9 µM | 1.54 |
| Cn1cccc1/C=C/c1cc(Br)c(/C=C/c2cccn2C)cc1Br | > 100 µM |  |
| Cc1ccc(-n2cc([Si](C)(C)C)nn2)s1 | > 100 µM |  |
| CSc1scc2c1/C(=N/NC(N)=O)CCC2 | > 100 µM |  |
| COc1ccc(Cn2cc3c(c2-c2cc(OC)c(OC)c(OC)c2)CCc2cnoc2-3)cc1 | > 100 µM | 0.515 |
| Cc1cc(I)cc(CN(C)CCCN2CCN(C)CC2)c1O | > 100 µM | 53.6 |
| O=C(/C=C\c1cccc2ccccc12)c1cccc2ccccc12 | 13.2 µM |  |
| C=C1C(=O)OC2CC3(C)OC3CC/C(C)=C/C(OC(C)=O)C12 (configuration not stated) | 27.8 µM |  |
| O=c1c2ccccc2nc(N/N=C/c2ccccc2O)n1-c1ccccc1 | > 100 µM |  |
| c1ccc(CN2CCN3CCN(CC2)CCN(Cc2ccccc2)CC3)cc1 | 37.3 µM |  |
| N#CCC(=O)N1CCCCCCC1 | > 100 µM |  |
| O=C1C(=Cc2ccc(Cl)c(Cl)c2)C([O-])=C([P+](c2ccccc2)(c2ccccc2)c2ccccc2)C([O-])=C1[P+](c1ccccc1)(c1ccccc1)c1ccccc1 | 11.6 µM |  |
| COc1cc(NC(=O)C2=C(N3CCOCC3)/C(=C/c3ccc(Cl)cc3)CC2)cc(OC)c1OC | > 100 µM | > 100 |
| O=[N+]([O-])c1cccc2nccc(NCCCO)c12 | 35 µM |  |
| COc1ccc(C[C@H](N)C(=O)N2C[C@@H](CO)C[C@@H](n3ccc(=O)[nH]c3=O)C2)cc1 | > 100 µM |  |
| COc1ccc(C(=O)/C=C/c2cc(O)c(O)cc2F)c(OC)c1 | 18.1 µM |  |
| CNCCN=c1ccc2c3c1c(O)c1c(O)ccc(=O)c1c3[nH]n2CCNCCO | 3.51 µM and 3.77 µM | 0.296 |
| Cc1ccc(CCC(=O)C(=O)O)s1 | > 100 µM |  |
| COC(=O)C1=C(C(=O)OC)SC2(S1)C(C(=O)OC)=C(C(=O)OC)Sc1c2ssc1=NC(C)(C)C | 17.5 µM |  |
| Cc1ccc([N+](=O)[O-])c2c(NCC(O)CO)ccnc12 (configuration not stated) | > 100 µM |  |
| O=C(c1ccccc1)c1c(C(F)(F)F)n([O-])c2ccc(C(F)(F)F)cc2[n+]1=O | 3.19 µM | 1.72 |
| CC(=O)[O-].O=C([CH-]C(=O)c1ccccc1)c1ccccc1.O=C([CH-]C(=O)c1ccccc1)c1ccccc1.[Sm+3] | 39.3 µM | 5.7 |
| Cn1c(=O)c2/c(n(C)c1=O)=N\C=c1\c(=O)n(C)c(=O)n(C)\c1=N\C=2 | > 100 µM |  |
| C=CC(COC(c1ccccc1)(c1ccccc1)c1ccccc1)N(CC)CC (configuration not stated) | 23.8 µM | 10.9 |
